# Measured values reported in a collection of fitness landscapes (doi:10.1016/j.celrep.2020.107928).
# The full ranking holds about 81,000 sequences; the median of “one-hybrid fitness for binding parS DNA” is about -0.17, and the highest 2% start at about 0.51. Some of the results follow.
# B1: Caulobacter ParB omega fusion; a variant is named by its letters at X, in order, B8GW30 (parent)
# chain: MESVVVGEPGMSEGRRGLGRGLSALLGEVDAAPAQAPGEQLGGSREAPIEILQRNPDQPRRTFREEDLEDLSNSIREKGVLQPILVRPSPDTAGEYQIVAGERAWRAAQRAGLKTVPIMVRELDDLAVLEIGIIENVQRADLNVLEEALSYKVLMEKFERTQENIAQTIGKSXSHVANXMRLLXLPDEVQSYLVSGELTAXHARAIAAAADPVALAKQIIEGGLSVRETEALARKAPNLSAGKSKGGRPPRVKDTDTQALESDLSSVLGLDVSIDHRGSTGTLTITYATLEQLDDLCNRLTRGI
# Variants of: B1
# Assay: one-hybrid fitness for binding parS DNA (scaled: cognate 1, non-cognate 0); higher = stronger binding
# Conditions: with parS DNA site
# Procedure, shortened: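 Caulobacter ParB libraries with four specificity codons randomised were screened by bacterial one-hybrid selection in the E. coli USO strain, using a HIS3 reporter whose site lies 19 bp from the promoter. Selection ran for 48 hours at 37°C on M9 lacking histidine, with 0.1 mM IPTG and 5 mM 3-AT. Plasmids were Illumina-sequenced before and after selection, three replicate libraries were pooled, and variants with under 10 reads were dropped. Fitness is the log change in each variant's read ratio to wild type, rescaled against the cognate and non-cognate sites.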
row,Variant,one-hybrid fitness for binding parS DNA
1,LGNS,≤ 0.2
2,NQPS,≤ 0.2
3,LLNY,≤ 0.2
4,ATQI,≤ 0.2
5,AIWD,≤ 0.2
6,PRMG,≤ 0.2
7,ARTI,≤ 0.2
8,ISNC,≤ 0.2
9,PRPP,≤ 0.2
10,RCET,0.758
11,LYIS,≤ 0.2
12,FDPI,≤ 0.2
13,TFTR,≤ 0.2
14,GCVM,≤ 0.2
15,AATG,≤ 0.2
16,QFNW,≤ 0.2
17,WSKI,≤ 0.2
18,QYSF,≤ 0.2
19,CAAY,≤ 0.2
20,FQIT,≤ 0.2
21,LCDM,≤ 0.2
22,QGDA,≤ 0.2
23,LGGC,≤ 0.2
24,AMTG,≤ 0.2

row,Variant,one-hybrid fitness for binding parS DNA
1,DVKL,≤ 0.2
2,FGEV,≤ 0.2
3,PCHW,≤ 0.2
4,DANM,≤ 0.2
5,RNLA,0.452
6,LMND,≤ 0.2
7,LITF,≤ 0.2
8,HIHV,≤ 0.2
9,VPMY,≤ 0.2
10,HDPR,≤ 0.2
11,RGAW,≤ 0.2
12,DFEG,≤ 0.2
13,CVFL,≤ 0.2
14,LSMM,≤ 0.2
15,QMGT,≤ 0.2
16,MRIS,≤ 0.2
17,ASRT,≤ 0.2
18,INLK,≤ 0.2
19,VLCA,≤ 0.2
20,PQSL,≤ 0.2
21,SSRT,≤ 0.2
22,SRGC,≤ 0.2
23,QQEQ,≤ 0.2
24,KPHD,≤ 0.2

row,Variant,one-hybrid fitness for binding parS DNA
1,CHAR,≤ 0.2
2,GKTS,≤ 0.2
3,AHEN,≤ 0.2
4,FILG,≤ 0.2
5,GDHM,≤ 0.2
6,PCTC,≤ 0.2
7,QNRW,≤ 0.2
8,TSAQ,≤ 0.2
9,PRDF,≤ 0.2
10,MVNG,≤ 0.2
11,QTFS,≤ 0.2
12,LWSA,≤ 0.2
13,RHID,≤ 0.2
14,RDEP,≤ 0.2
15,QVHS,≤ 0.2
16,QSEC,≤ 0.2
17,QIHT,≤ 0.2
18,VWLW,≤ 0.2
19,MVWR,≤ 0.2
20,RLEY,0.458
21,KLQE,≤ 0.2
22,KSHS,≤ 0.2
23,YIHC,≤ 0.2
24,NGIR,≤ 0.2

row,Variant,one-hybrid fitness for binding parS DNA
1,RKGE,≤ 0.2
2,QSYM,≤ 0.2
3,IASF,≤ 0.2
4,FALE,≤ 0.2
5,QPHM,≤ 0.2
6,CNRV,≤ 0.2
7,QDAF,≤ 0.2
8,FDRN,≤ 0.2
9,QNAS,≤ 0.2
10,YPPS,≤ 0.2
11,YNPF,≤ 0.2
12,QWFE,≤ 0.2
13,KSCA,≤ 0.2
14,LFTN,≤ 0.2
15,RTSD,≤ 0.2
16,TMCS,≤ 0.2
17,CRAP,≤ 0.2
18,FHAS,≤ 0.2
19,AKHT,≤ 0.2
20,QHAF,≤ 0.2
21,PRRC,≤ 0.2
22,HTWD,≤ 0.2
23,NTMW,≤ 0.2
24,IITG,≤ 0.2

row,Variant,one-hybrid fitness for binding parS DNA
1,VIHV,≤ 0.2
2,EYNK,≤ 0.2
3,RWKQ,≤ 0.2
4,MWHT,≤ 0.2
5,LWKT,≤ 0.2
6,YHNR,≤ 0.2
7,QTPE,≤ 0.2
8,AIVT,≤ 0.2
9,PMCD,≤ 0.2
10,ILRN,≤ 0.2
11,AFHS,≤ 0.2
12,PQTC,≤ 0.2
13,PMSL,≤ 0.2
14,LKMD,≤ 0.2
15,KDSC,≤ 0.2
16,RNDF,≤ 0.2
17,TGVC,≤ 0.2
18,SRNH,≤ 0.2
19,SLIM,≤ 0.2
20,KTWG,≤ 0.2
21,ILQI,≤ 0.2
22,FQCS,0.223
23,NGAT,≤ 0.2
24,SHFF,≤ 0.2

row,Variant,one-hybrid fitness for binding parS DNA
1,WNEG,≤ 0.2
2,WRNE,≤ 0.2
3,LCNK,≤ 0.2
4,ATRH,≤ 0.2
5,NPEL,≤ 0.2
6,GHRN,≤ 0.2
7,AECP,≤ 0.2
8,RERY,≤ 0.2
9,YNSW,≤ 0.2
10,KMTV,≤ 0.2
11,GSHW,≤ 0.2
12,ENVS,≤ 0.2
13,HISW,≤ 0.2
14,HLND,≤ 0.2
15,LLLL,≤ 0.2
16,PYAI,≤ 0.2
17,VWHG,≤ 0.2
18,MPSP,≤ 0.2
19,LLSN,≤ 0.2
20,GKGG,≤ 0.2
21,KGQS,≤ 0.2
22,DVGC,≤ 0.2
23,LHIS,≤ 0.2
24,RLNG,1.01

row,Variant,one-hybrid fitness for binding parS DNA
1,QCAP,≤ 0.2
2,NIDR,≤ 0.2
3,QCYK,≤ 0.2
4,CHRR,≤ 0.2
5,ANEG,≤ 0.2
6,CGNT,≤ 0.2
7,SQCM,≤ 0.2
8,RMCM,0.362
9,NCRF,≤ 0.2
10,WHDC,≤ 0.2
11,QHHD,≤ 0.2
12,TISD,≤ 0.2
13,HDDY,≤ 0.2
14,ILLT,≤ 0.2
15,TLTV,≤ 0.2
16,LWLG,≤ 0.2
17,AVDN,≤ 0.2
18,TRRH,≤ 0.2
19,GLTG,≤ 0.2
20,CSAL,≤ 0.2
21,TRFG,≤ 0.2
22,TPDR,≤ 0.2
23,RHKT,0.745
24,MLMI,≤ 0.2

row,Variant,one-hybrid fitness for binding parS DNA
1,QTGH,≤ 0.2
2,WVTR,≤ 0.2
3,RKTW,≤ 0.2
4,AMSW,≤ 0.2
5,QNHM,≤ 0.2
6,PMLC,≤ 0.2
7,VLMT,≤ 0.2
8,CPHL,≤ 0.2
9,GASG,≤ 0.2
10,TVPE,≤ 0.2
11,TEVG,≤ 0.2
12,NTHV,≤ 0.2
13,YSYW,≤ 0.2
14,AAPR,≤ 0.2
15,TMSC,≤ 0.2
16,IRAK,≤ 0.2
17,TFWC,≤ 0.2
18,SSVK,≤ 0.2
19,PNAF,≤ 0.2
20,ENNR,≤ 0.2
21,RFTS,1.01
22,AEGS,≤ 0.2
23,FWMG,≤ 0.2
24,AAHF,≤ 0.2

row,Variant,one-hybrid fitness for binding parS DNA
1,RMPI,≤ 0.2
2,FAIM,≤ 0.2
3,KPLE,≤ 0.2
4,QITQ,≤ 0.2
5,LELT,≤ 0.2
6,LSIE,≤ 0.2
7,QCTY,≤ 0.2
8,CHMT,≤ 0.2
9,CAGA,≤ 0.2
10,GMPC,≤ 0.2
11,VYNA,≤ 0.2
12,WNKR,≤ 0.2
13,RSVQ,≤ 0.2
14,LGPR,≤ 0.2
15,RNAD,≤ 0.2
16,LRPE,≤ 0.2
17,YPNY,≤ 0.2
18,MTDK,≤ 0.2
19,WRLM,≤ 0.2
20,RKRH,≤ 0.2
21,GALL,≤ 0.2
22,NQHP,≤ 0.2
23,DTEM,≤ 0.2
24,VDAL,≤ 0.2

row,Variant,one-hybrid fitness for binding parS DNA
1,NTSR,≤ 0.2
2,QRGS,≤ 0.2
3,LDAK,≤ 0.2
4,TMAF,≤ 0.2
5,WTTN,≤ 0.2
6,LNKV,≤ 0.2
7,NTNK,≤ 0.2
8,PTNP,≤ 0.2
9,HPQF,≤ 0.2
10,SAIP,≤ 0.2
11,STSL,≤ 0.2
12,GSTH,≤ 0.2
13,THCQ,≤ 0.2
14,GMND,≤ 0.2
15,QCET,≤ 0.2
16,KWLL,≤ 0.2
17,LVRV,≤ 0.2
18,LWTM,≤ 0.2
19,AGHP,≤ 0.2
20,IVKR,≤ 0.2
21,PTNI,≤ 0.2
22,WRRV,≤ 0.2
23,CMSW,≤ 0.2
24,VMTV,≤ 0.2

row,Variant,one-hybrid fitness for binding parS DNA
1,SMKL,≤ 0.2
2,ERGG,≤ 0.2
3,PTHG,≤ 0.2
4,WRLF,≤ 0.2
5,VHCN,≤ 0.2
6,CVTG,≤ 0.2
7,DSSM,≤ 0.2
8,LNCC,≤ 0.2
9,KGIC,≤ 0.2
10,ASFT,≤ 0.2
11,AMLG,≤ 0.2
12,FMIT,≤ 0.2
13,YYRW,≤ 0.2
14,TRID,≤ 0.2
15,WVTQ,≤ 0.2
16,GDYG,≤ 0.2
17,AVIR,≤ 0.2
18,NNHS,≤ 0.2
19,LTAY,≤ 0.2
20,EVWM,≤ 0.2
21,YRQA,≤ 0.2
22,LKSK,≤ 0.2
23,NQKA,≤ 0.2
24,CVTS,≤ 0.2

row,Variant,one-hybrid fitness for binding parS DNA
1,CTVP,≤ 0.2
2,WNGI,≤ 0.2
3,VERF,≤ 0.2
4,SNKI,≤ 0.2
5,VERY,≤ 0.2
6,LRKY,≤ 0.2
7,RWNV,≤ 0.2
8,QFLW,≤ 0.2
9,TYLN,≤ 0.2
10,SYHR,≤ 0.2
11,TRLH,≤ 0.2
12,DNME,≤ 0.2
13,MLSY,≤ 0.2
14,LNWH,0.233
15,GPCV,≤ 0.2
16,THQA,≤ 0.2
17,GCRT,≤ 0.2
18,YKLR,≤ 0.2
19,DNTG,≤ 0.2
20,HWLG,≤ 0.2
21,QMWA,≤ 0.2
22,CCQS,≤ 0.2
23,LRFT,≤ 0.2
24,CYPG,≤ 0.2

row,Variant,one-hybrid fitness for binding parS DNA
1,DPVT,≤ 0.2
2,NPNM,≤ 0.2
3,GLYG,≤ 0.2
4,HFPA,≤ 0.2
5,ELWL,≤ 0.2
6,PTCA,≤ 0.2
7,WLIT,≤ 0.2
8,DTHG,≤ 0.2
9,PLEL,≤ 0.2
10,HWSC,≤ 0.2
11,QGES,≤ 0.2
12,NHGS,≤ 0.2
13,RTVR,≤ 0.2
14,PICF,≤ 0.2
15,PTPW,≤ 0.2
16,VCRY,≤ 0.2
17,PTWQ,≤ 0.2
18,AAPK,≤ 0.2
